This is one part of the list. At the low end of the ranking the order means little.

In this test the target is GST-SBP-SLBP (stem-loop binding protein) (UniProt Q14493). Put plainly: targeted RNA Bind-n-Seq.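 Also: DESeq read counts versus GST-SBP nonspecific binding control pulldown.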 To be noted: RBNS binding buffer: 25 mM Tris pH 7.5, 150 mM KCl, 3 mM MgCl2, 0.1% Tween, 0.5 mg/mL BSA, 1 mM DTT; 27 nM protein, 750 pM RNA pool; temperature not stated; high values mean tight binding.
Regarding “GGUCACGUCUCAAUCAACUCUUCCCCAGGAGUUUUCUCCUGUAUACUCAACAGCUCGCAGUCAAG”, the binding signal (log2 fold change) was 0.123.
Regarding “GGUCACGUCUCAAUCAACUCAUUCGAGGGGGGGAAAACCCCUUUACCCUCACAUUCAACAGCUCGCAGUCAAG”, the binding signal (log2 fold change) was -0.295.
With “GGUCACGUCUCAAUCAACUCUAUUUCCAGGGAAAGCCCUGGCGUUUUCAACAGCUCGCAGUCAAG” the figure was 0.021; with “GGUCACGUCUCAAUCAACUCUACUUCCAGGGAAAUCCCUGGCUUUCUCAACAGCUCGCAGUCAAG”, -0.163.
With “GGUCACGUCUCAAUCAACUCAUUCCCCAGGGAAAGCCCUGGCUUUUUCAACAGCUCGCAGUCAAG” the figure was 0.512; with “GGUCACGUCUCAAUCAACUCAACUUCAGGAGUUUCCUCCUGCAUUUUCAACAGCUCGCAGUCAAG”, 0.117.
The value for “GGUCACGUCUCAAUCAACUCAACUUCAGGAGUUUUCUCCUGCUAUGUCAACAGCUCGCAGUCAAG” was 0.143.
As to “GGUCACGUCUCAAUCAACUCUUCGUCAGGAGUUUACUCCUGCAAAUUCAACAGCUCGCAGUCAAG”, the binding signal (log2 fold change) was -0.132.
With “GGUCACGUCUCAAUCAACUCUUCUCCCAGGGAAAUCCCUGGUUUACUCAACAGCUCGCAGUCAAG” the figure was -0.125.
The value for “GGUCACGUCUCAAUCAACUCCUCAGAGGGGGGGAAAACCCCUUUACCCUCCACCUCAACAGCUCGCAGUCAAG” was 0.326; that for “GGUCACGUCUCAAUCAACUCUAUUCCCAGGGAAAUCCCUGGUUUACUCAACAGCUCGCAGUCAAG” was -0.113; that for “GGUCACGUCUCAAUCAACUCUACUUCAGGAGUUUCCUCCUGCUAAUUCAACAGCUCGCAGUCAAG” was 0.0446.
With “GGUCACGUCUCAAUCAACUCCCACGAGGGGGGGAAAACCCCUUUACCCUCAAUCUCAACAGCUCGCAGUCAAG” the figure was 0.245; with “GGUCACGUCUCAAUCAACUCAUUUCCCAGGGAAAACCCUGGUUAUCUCAACAGCUCGCAGUCAAG”, 0.162.
With “GGUCACGUCUCAAUCAACUCUUCUCCCAGGGAAAUCCCUGGUUUAUUCAACAGCUCGCAGUCAAG”, the binding signal (log2 fold change) is -0.243.
The value for “GGUCACGUCUCAAUCAACUCAAUUUCAGGAGUUUCCUCCUGCAAACUCAACAGCUCGCAGUCAAG” was 0.00572; that for “GGUCACGUCUCAAUCAACUCAACUUCAGGAGUUUCCUCCUGCAAUGUCAACAGCUCGCAGUCAAG” was -0.134; that for “GGUCACGUCUCAAUCAACUCUAACGAGGGGGGGAAAACCCCUUUACCCUCAAACUCAACAGCUCGCAGUCAAG” was 0.21.
The value for “GGUCACGUCUCAAUCAACUCCAACGAGGGGGGGAAAACCCCUUUACCCUCAUACUCAACAGCUCGCAGUCAAG” was 0.165; that for “GGUCACGUCUCAAUCAACUCUAAAGAGGGGGGGAAAACCCCUUUACCCUCCCAAUCAACAGCUCGCAGUCAAG” was 0.0917.
With “GGUCACGUCUCAAUCAACUCAGUCCCAGGAGUUUUCUCCUGUUAAUUCAACAGCUCGCAGUCAAG” the figure was -0.125; with “GGUCACGUCUCAAUCAACUCAAUGGCAGGAGUUUACUCCUGGAAAUUCAACAGCUCGCAGUCAAG”, 0.0622.
For the sequence “GGUCACGUCUCAAUCAACUCAUCGUCCAGGGAAAACCCUGGCUAUUUCAACAGCUCGCAGUCAAG”, the binding signal (log2 fold change) was found to be 0.19.
The value for “GGUCACGUCUCAAUCAACUCAUUAGAGGGGGGGAAAACCCCUUUACCCUCCACUUCAACAGCUCGCAGUCAAG” was -0.252; that for “GGUCACGUCUCAAUCAACUCAAUCGAGGGGGGGAAAACCCCUUUACCCUCAUUCUCAACAGCUCGCAGUCAAG” was -0.0701; that for “GGUCACGUCUCAAUCAACUCUUAAGAGGGGGGGAAAACCCCUUUACCCUCAUCCUCAACAGCUCGCAGUCAAG” was -0.216.
The value for “GGUCACGUCUCAAUCAACUCUUCGUCAGGAGUUUUCUCCUGUUUUUUCAACAGCUCGCAGUCAAG” was -0.13.
The value for “GGUCACGUCUCAAUCAACUCUAUCUCAGGAGUUUUCUCCUGCUUAUUCAACAGCUCGCAGUCAAG” was 0.0835; that for “GGUCACGUCUCAAUCAACUCAACUUCAGGAGUUUUCUCCUGCUAACUCAACAGCUCGCAGUCAAG” was 0.0627; that for “GGUCACGUCUCAAUCAACUCAAUUUCCAGGGAAAUCCCUGGCAUUCUCAACAGCUCGCAGUCAAG” was 0.19.
As to “GGUCACGUCUCAAUCAACUCAAUUUCCAGGGAAAUCCCUGGCGUUUUCAACAGCUCGCAGUCAAG”, the binding signal (log2 fold change) is -0.0558.
For the sequence “GGUCACGUCUCAAUCAACUCAAUCUCCAGGGAAAUCCCUGGCUAACUCAACAGCUCGCAGUCAAG”, the binding signal (log2 fold change) amounted to 0.242.
On to “GGUCACGUCUCAAUCAACUCCUCAGAGGGGGGGAAAACCCCUUUACCCUCGUCCUCAACAGCUCGCAGUCAAG”, for which the binding signal (log2 fold change) was found to be 0.382.
With “GGUCACGUCUCAAUCAACUCUUUCCCCAGGGAAACCCCUGGCAUUUUCAACAGCUCGCAGUCAAG” the figure was -0.0793.
Regarding “GGUCACGUCUCAAUCAACUCUAAAGAGGGGGGGAAAACCCCUUUGCCCUCAACAUCAACAGCUCGCAGUCAAG”, the binding signal (log2 fold change) is -0.0585.
With “GGUCACGUCUCAAUCAACUCUUCCCCCAGGGAAAACCCUGGUAAACUCAACAGCUCGCAGUCAAG” the figure was 0.177.
Turning to “GGUCACGUCUCAAUCAACUCAUUCCCCAGGGAAACCCCUGGUAAUUUCAACAGCUCGCAGUCAAG”, the binding signal (log2 fold change) is -0.244.
With “GGUCACGUCUCAAUCAACUCUAUCCCCAGGGAAAGCCCUGGCAAUUUCAACAGCUCGCAGUCAAG” the figure was 0.261.
With “GGUCACGUCUCAAUCAACUCCCUGGAGGGGGGGAAAACCCCUUUACCCUCAAUAUCAACAGCUCGCAGUCAAG” the figure was 0.169; with “GGUCACGUCUCAAUCAACUCCUCAGAGGGGGGGAAAACCCCUUUACCCUCAAACUCAACAGCUCGCAGUCAAG”, -0.277.
With “GGUCACGUCUCAAUCAACUCUUCGUCCAGGGAAAACCCUGGUAUUUUCAACAGCUCGCAGUCAAG”, the binding signal (log2 fold change) is -0.147.
Consider “GGUCACGUCUCAAUCAACUCAUUCUCAGGAGUUUUCUCCUGUAUUCUCAACAGCUCGCAGUCAAG”, for which the binding signal (log2 fold change) is -0.0497.
The value for “GGUCACGUCUCAAUCAACUCAUCCUCAGGAGUUUCCUCCUGUAAAGUCAACAGCUCGCAGUCAAG” was 0.042; that for “GGUCACGUCUCAAUCAACUCAUAAGAGGGGGGGAAAACCCCUUUACCCUCAUCAUCAACAGCUCGCAGUCAAG” was -0.306.
The value for “GGUCACGUCUCAAUCAACUCAUCCUCCAGGGAAAACCCUGGCUAAUUCAACAGCUCGCAGUCAAG” was 0.176; that for “GGUCACGUCUCAAUCAACUCUUUAGAGGGGGGGAAAACCCCUUUACCCUCCACUUCAACAGCUCGCAGUCAAG” was -0.733; that for “GGUCACGUCUCAAUCAACUCAUCUUCAGGAGUUUUCUCCUGUUUUUUCAACAGCUCGCAGUCAAG” was -0.187.

Source of the values: article PMC5892938.
